Measured values published in PMC4924701.
Residue numbers refer to the chain shown, from its start. These are yes or no findings as the source states them, for the method shown. In cells and extracts the contact can be indirect. Some results given as binding are weak or reduced against the parent protein; the word gives no strength. For some of these results: Where a sequence is shown, tags or fusion partners need not be part of it.

The chains behind the UniProt entries cited, without tags or fusion partners. Where a name states a change or a piece, a line headed by the entry shows the natural chain unless it says otherwise. A line that says so, or that is headed by a name, gives the form on record, which may keep a tag or linker. Residues count along the entry.
wild-type FLT3 (P36888, residues 27-993): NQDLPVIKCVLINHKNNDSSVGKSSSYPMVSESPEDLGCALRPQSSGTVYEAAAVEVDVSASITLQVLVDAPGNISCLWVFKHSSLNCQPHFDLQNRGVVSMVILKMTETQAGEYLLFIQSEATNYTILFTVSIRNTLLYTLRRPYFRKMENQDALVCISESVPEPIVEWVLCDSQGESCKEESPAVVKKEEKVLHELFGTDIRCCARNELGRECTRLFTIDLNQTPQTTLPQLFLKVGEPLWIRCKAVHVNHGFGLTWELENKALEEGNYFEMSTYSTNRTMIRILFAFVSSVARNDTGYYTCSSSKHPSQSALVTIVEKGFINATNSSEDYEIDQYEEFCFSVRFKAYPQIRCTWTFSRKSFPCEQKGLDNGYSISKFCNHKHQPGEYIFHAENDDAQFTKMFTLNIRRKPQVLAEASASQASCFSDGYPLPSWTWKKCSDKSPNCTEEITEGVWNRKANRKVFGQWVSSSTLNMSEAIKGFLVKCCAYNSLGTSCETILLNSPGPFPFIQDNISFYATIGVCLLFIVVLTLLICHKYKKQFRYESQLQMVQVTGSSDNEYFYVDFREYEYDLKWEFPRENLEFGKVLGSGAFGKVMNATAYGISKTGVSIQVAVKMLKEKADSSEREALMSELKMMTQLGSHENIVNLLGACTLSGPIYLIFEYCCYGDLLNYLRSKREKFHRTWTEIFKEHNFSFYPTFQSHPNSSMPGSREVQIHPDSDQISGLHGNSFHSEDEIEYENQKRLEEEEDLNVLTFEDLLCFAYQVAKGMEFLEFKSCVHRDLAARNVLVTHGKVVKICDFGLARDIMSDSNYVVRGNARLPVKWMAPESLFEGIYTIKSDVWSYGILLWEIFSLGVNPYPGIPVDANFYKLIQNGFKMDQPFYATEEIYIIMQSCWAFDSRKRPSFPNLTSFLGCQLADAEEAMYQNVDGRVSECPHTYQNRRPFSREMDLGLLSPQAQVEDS
FLT3-Y955F-Y969F (P36888, form named): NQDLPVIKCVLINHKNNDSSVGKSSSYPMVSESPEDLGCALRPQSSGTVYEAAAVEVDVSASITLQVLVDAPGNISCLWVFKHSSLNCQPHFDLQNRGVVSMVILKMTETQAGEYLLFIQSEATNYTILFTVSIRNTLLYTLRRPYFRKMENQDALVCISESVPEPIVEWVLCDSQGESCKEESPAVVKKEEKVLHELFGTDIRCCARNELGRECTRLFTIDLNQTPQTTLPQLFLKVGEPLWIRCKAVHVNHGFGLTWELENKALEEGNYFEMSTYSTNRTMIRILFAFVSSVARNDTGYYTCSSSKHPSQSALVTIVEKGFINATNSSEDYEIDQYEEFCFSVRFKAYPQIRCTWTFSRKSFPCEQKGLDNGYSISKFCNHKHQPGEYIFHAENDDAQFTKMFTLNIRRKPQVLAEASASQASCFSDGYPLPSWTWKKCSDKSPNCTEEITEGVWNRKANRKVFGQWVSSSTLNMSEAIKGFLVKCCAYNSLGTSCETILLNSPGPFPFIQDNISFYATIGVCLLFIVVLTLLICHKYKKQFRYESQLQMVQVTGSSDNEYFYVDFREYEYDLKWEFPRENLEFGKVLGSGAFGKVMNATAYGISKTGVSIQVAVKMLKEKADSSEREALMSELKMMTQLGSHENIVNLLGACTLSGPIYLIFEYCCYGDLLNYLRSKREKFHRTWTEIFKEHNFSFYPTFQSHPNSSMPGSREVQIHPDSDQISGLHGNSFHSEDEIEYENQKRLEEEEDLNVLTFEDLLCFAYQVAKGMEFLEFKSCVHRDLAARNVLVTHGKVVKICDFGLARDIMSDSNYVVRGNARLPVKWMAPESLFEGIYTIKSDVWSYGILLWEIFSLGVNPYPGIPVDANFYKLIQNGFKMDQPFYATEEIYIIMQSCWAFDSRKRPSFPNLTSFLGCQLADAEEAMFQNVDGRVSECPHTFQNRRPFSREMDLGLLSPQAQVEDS
FLT3-Y969F (P36888, form named): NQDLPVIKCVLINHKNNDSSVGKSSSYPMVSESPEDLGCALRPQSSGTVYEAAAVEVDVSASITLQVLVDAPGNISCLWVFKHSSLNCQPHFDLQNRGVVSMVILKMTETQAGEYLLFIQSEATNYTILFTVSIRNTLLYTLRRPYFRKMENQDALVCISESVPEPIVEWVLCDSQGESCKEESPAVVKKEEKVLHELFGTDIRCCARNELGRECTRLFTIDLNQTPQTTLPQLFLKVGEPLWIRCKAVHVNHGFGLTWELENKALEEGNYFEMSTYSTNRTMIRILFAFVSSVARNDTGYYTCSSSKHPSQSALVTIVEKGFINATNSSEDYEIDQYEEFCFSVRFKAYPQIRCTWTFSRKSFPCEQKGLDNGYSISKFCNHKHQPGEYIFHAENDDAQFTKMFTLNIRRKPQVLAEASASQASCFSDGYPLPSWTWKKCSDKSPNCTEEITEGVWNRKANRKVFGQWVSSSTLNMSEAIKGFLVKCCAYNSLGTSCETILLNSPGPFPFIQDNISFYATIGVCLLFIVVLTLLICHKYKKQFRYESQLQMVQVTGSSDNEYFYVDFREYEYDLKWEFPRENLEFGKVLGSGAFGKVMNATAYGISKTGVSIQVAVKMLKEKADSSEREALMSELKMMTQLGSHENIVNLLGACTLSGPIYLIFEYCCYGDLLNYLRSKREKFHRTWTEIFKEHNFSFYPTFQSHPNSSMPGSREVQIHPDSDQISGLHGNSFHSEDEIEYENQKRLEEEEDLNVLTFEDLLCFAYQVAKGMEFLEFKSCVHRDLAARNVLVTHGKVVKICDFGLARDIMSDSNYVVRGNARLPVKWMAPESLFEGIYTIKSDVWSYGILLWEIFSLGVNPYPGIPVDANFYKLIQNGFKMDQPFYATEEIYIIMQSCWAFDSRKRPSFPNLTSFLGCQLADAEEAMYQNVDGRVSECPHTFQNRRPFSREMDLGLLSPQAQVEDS
FLT3-K644A (kinase-dead mutant of FLT3) (P36888, form named): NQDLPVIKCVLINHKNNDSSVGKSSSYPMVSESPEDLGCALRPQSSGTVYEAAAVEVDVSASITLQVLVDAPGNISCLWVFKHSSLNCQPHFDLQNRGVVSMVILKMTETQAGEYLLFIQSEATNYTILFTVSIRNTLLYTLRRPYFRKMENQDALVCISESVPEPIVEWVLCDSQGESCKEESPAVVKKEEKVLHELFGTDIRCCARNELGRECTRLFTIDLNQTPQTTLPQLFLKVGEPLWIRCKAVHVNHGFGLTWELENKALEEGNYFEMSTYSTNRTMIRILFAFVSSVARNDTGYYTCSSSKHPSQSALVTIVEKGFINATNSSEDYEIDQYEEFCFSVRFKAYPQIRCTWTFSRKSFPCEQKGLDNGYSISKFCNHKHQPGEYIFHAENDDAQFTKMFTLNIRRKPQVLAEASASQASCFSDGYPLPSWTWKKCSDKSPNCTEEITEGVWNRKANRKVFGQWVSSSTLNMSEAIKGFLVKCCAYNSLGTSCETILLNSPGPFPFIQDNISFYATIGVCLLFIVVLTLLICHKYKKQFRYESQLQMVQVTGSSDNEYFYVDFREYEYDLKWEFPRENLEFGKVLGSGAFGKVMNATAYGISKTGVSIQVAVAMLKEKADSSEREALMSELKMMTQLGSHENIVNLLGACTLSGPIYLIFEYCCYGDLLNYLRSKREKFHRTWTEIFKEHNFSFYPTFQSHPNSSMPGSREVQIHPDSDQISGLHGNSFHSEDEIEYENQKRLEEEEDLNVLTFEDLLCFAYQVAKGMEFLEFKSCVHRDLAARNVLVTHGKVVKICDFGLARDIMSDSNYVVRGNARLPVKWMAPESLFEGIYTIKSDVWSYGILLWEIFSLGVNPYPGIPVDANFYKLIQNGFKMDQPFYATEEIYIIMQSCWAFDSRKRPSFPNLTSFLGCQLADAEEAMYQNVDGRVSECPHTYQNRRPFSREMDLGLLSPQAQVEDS

Experiments:
[1] = target: T1, FLAG-tagged GADS (GRB2-related adaptor protein 2, GRAP2) (human) (UniProt O75791); assay: co-IP; COS-1 cells co-transfected with FLAG-GADS and FLT3 plasmids, stimulated or not with 100 ng/ml FL for five minutes before lysis; anti-FLAG immunoprecipitation, Western blotting
T1 sequence: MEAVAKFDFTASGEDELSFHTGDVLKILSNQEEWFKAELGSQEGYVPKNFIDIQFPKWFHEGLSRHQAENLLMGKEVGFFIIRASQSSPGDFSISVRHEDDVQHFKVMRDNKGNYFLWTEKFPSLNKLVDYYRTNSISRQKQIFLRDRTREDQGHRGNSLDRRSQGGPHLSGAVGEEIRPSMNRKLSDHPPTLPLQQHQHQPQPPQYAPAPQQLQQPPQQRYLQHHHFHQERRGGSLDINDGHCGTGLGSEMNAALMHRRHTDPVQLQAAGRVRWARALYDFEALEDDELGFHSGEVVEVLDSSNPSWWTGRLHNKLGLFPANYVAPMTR

[2] = target: T2, GADS stably expressed in Ba/F3-FLT3-WT cells (human) (UniProt O75791); assay: co-IP; Ba/F3 cells expressing FLT3-WT and GADS, stimulated with FL for 5 minutes; lysed in 1% Triton X100 buffer; immunoprecipitation with an anti-GADS antibody
T2 sequence: T1 sequence

[3] = target: T1, FLAG-tagged GADS (GRB2-related adaptor protein 2, GRAP2) (human); assay: co-IP; COS-1 cells co-transfected with FLAG-GADS and FLT3-WT, not stimulated with FL; anti-FLAG immunoprecipitation, Western blotting
[4] = target: T3, FLAG-tagged GADS-R83E (human) (UniProt O75791); assay: co-IP; COS-1 cells co-transfected with FLAG-GADS and FLT3 plasmids, stimulated or not with 100 ng/ml FL for five minutes before lysis; anti-FLAG immunoprecipitation, Western blotting
T3 sequence: T1 sequence with R83E

binding [1]	binding [2]	binding [4]	Substance	binding [3]
no binding	–	–	FLT3-Y955F-Y969F (from UniProt P36888 27-993) (receptor)	–
binds	–	–	FLT3-Y969F (from UniProt P36888 27-993) (receptor)	–

Second part, the substance before the results:

Substance	binding [1]	binding [2]	binding [4]	binding [3]
wild-type FLT3 stably expressed in Ba/F3 cells (from UniProt P36888 27-993) (receptor)	–	binds	–	–
wild-type FLT3 (from UniProt P36888 27-993) (receptor)	binds	–	no binding	no binding (condition: cells not stimulated with FL)
FLT3-K644A (kinase-dead mutant of FLT3) (from UniProt P36888 27-993) (receptor)	no binding	–	–	–
